# In all, about 390,000 compounds went through this assay and about 4,700 (1.2%) were called active. Inconclusive results, whose numbers are uncertain, are shown with a selection of clear calls. Calls come from the whole dose curve; as a rule, active = well fitted inhibition curve with a large enough effect; inconclusive = small, poorly fitted or top-dose-only effect, or another doubt; inactive = no such curve, though single readings can be large or run the other way. Potencies beside an inconclusive call are fits to weak or partial responses and may not hold up.
# Target: DNA polymerase eta (Homo sapiens) (UniProt Q9Y253)
# UniProt Q9Y253, sequence (Q9Y253 whole entry, looked up): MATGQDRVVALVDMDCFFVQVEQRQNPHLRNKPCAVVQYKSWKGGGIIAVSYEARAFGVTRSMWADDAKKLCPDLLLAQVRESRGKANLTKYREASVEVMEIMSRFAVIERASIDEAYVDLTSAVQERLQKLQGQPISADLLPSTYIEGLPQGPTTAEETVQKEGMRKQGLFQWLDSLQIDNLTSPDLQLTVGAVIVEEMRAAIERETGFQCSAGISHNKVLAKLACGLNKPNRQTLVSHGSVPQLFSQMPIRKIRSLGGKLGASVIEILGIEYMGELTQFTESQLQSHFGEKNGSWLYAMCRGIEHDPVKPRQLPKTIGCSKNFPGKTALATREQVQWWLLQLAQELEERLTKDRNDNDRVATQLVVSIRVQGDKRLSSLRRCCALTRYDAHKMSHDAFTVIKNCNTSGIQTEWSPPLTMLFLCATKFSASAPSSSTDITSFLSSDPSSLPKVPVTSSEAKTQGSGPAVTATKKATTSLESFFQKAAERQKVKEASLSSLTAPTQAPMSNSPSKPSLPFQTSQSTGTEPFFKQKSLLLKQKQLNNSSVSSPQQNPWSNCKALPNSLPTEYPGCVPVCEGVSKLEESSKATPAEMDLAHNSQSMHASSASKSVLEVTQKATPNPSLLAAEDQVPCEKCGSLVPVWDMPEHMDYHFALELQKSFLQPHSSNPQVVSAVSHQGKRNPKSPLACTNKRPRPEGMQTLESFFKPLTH
# Assay: qHTS for Inhibitors of Polymerase Eta
# Conditions: recombinant Pol eta, fluorescent DNA replication assay; series mostly up to 114 µM
# How it was run: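 Pol eta at 10 nM preincubated with compounds 15 min at room temperature; reaction started with fluorescent substrate (50 nM final) and read kinetically at 0 and 10 min.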
# Potency is the fitted concentration of half-maximal effect; tags give direction and shape of the fitted curve.
row,Structure (SMILES),Potency
1,Cc1nc2c(nnn2Cc2ccccc2Cl)c(=O)[nH]1,inactive
2,COc1ccc(NC(C)C(=O)Nc2ccc(C(C)(C)C)cc2)cc1Cl (configuration not stated),"inconclusive: 50.1 µM [inhibitor, partial curve, poor fit]"
3,O=C(Nc1cnc(N2CCN(c3ccccc3)CC2)c(C(=O)O)c1)c1cccs1,"inconclusive: 89.1 µM [inhibitor, single point]"
4,O=C(Nc1nc2c(F)cc(F)cc2s1)C1CC(=O)N(Cc2ccco2)C1 (configuration not stated),active: 50.1 µM
5,CC(=O)c1ccc(S(=O)(=O)NCCC(=O)NC(C)c2ccncc2)cc1 (configuration not stated),"inconclusive: 50.1 µM [inhibitor, partial curve]"
6,COc1ccc(CCNc2ncnc3c2cnn3-c2cc(Cl)ccc2C)cc1,inactive
7,COc1ccc(C(=O)Nc2ccccc2C(=O)N(Cc2ccco2)C(C(N)=O)C(C)C)cc1 (configuration not stated),"inconclusive: 3.55 µM [inhibitor, full curve]"
8,CC(=O)N1CCc2c(sc(NC(=O)c3cccc(N4C(=O)CCC4=O)c3)c2C(N)=O)C1,"inconclusive: 56.2 µM [inhibitor, partial curve, poor fit]"
9,CC(C)(C)C1CCc2oc3ccc(NS(=O)(=O)c4ccc(C(=O)O)cc4)cc3c2C1 (configuration not stated),"inconclusive: 56.2 µM [inhibitor, partial curve, poor fit]"
10,COc1cccc(OCCOc2ccc(/C=C3/SC(=S)NC3=O)cc2)c1,active: 28.2 µM
11,CC1(c2ccc3c(c2)OCCO3)NC(=O)N(CC(=O)c2ccc[nH]2)C1=O (configuration not stated),"inconclusive: 28.2 µM [inhibitor, partial curve, poor fit]"
12,N#CC1=C(N)NC(SCC(=O)O)=C(C#N)C12CCCC2,"inconclusive: 28.2 µM [inhibitor, partial curve, poor fit]"
13,CCN(CC)CCCNC(=O)c1nn2c(C(F)(F)F)cc(-c3ccccc3)nc2c1Cl,inactive
14,O=C(CNC(=O)c1cc2c(s1)CCC2)Nc1ccccc1Br,"inconclusive: 11.2 µM [inhibitor, partial curve]"
15,Cc1oc(C(=O)O)cc1CSc1nnc(-c2ccccc2)n1C,"inconclusive: 31.6 µM [inhibitor, single point]"
16,NS(=O)(=O)c1ccc2nc(NC(=O)c3ccc(Br)o3)sc2c1,"inconclusive: 20 µM [inhibitor, full curve]"
17,COc1ccc(S(=O)(=O)N(C)c2ccc(C(=O)NCc3ccco3)cc2)cc1OC,"inconclusive: 89.1 µM [inhibitor, partial curve, poor fit]"
18,COc1ccc(/C=C2\Oc3cc(OCC(=O)N4CCC[C@H]4CO)ccc3C2=O)c(OC)c1,"inconclusive: 50.1 µM [inhibitor, partial curve]"
19,C=CCC[C@@H](Cc1ccc(F)cc1)C(=O)OC[C@H]1CCCN1C(=O)[C@@H](CC=C)CC(=O)N[C@H](CO)Cc1ccccc1,"inconclusive: 79.4 µM [inhibitor, partial curve, poor fit]"
20,Cc1cccc(NC(=O)CSc2ncnc3sc(C)c(C)c23)n1,"inconclusive: 14.1 µM [inhibitor, full curve, poor fit]"
21,CCOC(=O)[C@H]1[C@H]2COc3ccccc3[C@@H]2N2C(=O)c3c(C)cc(C)cc3NC(=O)[C@@]12C,inactive

row,Structure (SMILES),Potency
1,Cc1ccc(N=C2NC(=O)/C(=C\c3cccs3)S2)cc1C,"inconclusive: 39.8 µM [inhibitor, partial curve, poor fit]"
2,NC(=O)C1CCN(c2oc(-c3cccs3)nc2S(=O)(=O)c2ccc(Cl)cc2)CC1,"inconclusive: 0.316 µM [inhibitor, full curve, poor fit]"
3,Cc1cc2ncn(C(=O)c3c(-c4ccccc4)noc3C)c2cc1C,inactive
4,COc1ccc(N2CCN(Cc3nnc(-c4cccc(Br)c4)o3)CC2)cc1,inactive
5,CC(C)c1ccc(NC(=O)CSc2nc3ccsc3c(=O)n2Cc2ccc(C(=O)O)cc2)cc1,"inconclusive: 31.6 µM [inhibitor, single point]"
6,Cc1nnc(NC(=O)CSCc2cc(=O)c3ccccc3[nH]2)s1,active: 50.1 µM
7,O=c1cc(-c2ccncc2)oc2ccccc12,"inconclusive: 89.1 µM [inhibitor, partial curve, poor fit]"
8,O=C(O)c1cccc(N/N=C/C2=C(Cl)c3cc(Cl)ccc3SC2)c1,active: 50.1 µM
9,O=C(NCCCNC(=O)c1c(Cl)cccc1Cl)c1c(Cl)cccc1Cl,inactive
10,COc1cc(-c2nnc(SCc3cc(=O)oc4cc(O)c(O)cc34)o2)cc(OC)c1OC,active: 0.708 µM
11,Cc1ccc(NC(=O)CN2C(=O)N/C(=C/c3cc(C)n(-c4cccc(C(=O)O)c4)c3C)C2=O)cc1,active: 20 µM
12,N#Cc1ccsc1NC(=O)c1cccc([N+](=O)[O-])c1,"inconclusive: 50.1 µM [inhibitor, partial curve]"
13,CC(C)CC1NC(=O)N(CC(=O)N(C)C2CCCCC2)C1=O (configuration not stated),"inconclusive: 100 µM [inhibitor, single point]"
14,Cn1c(=O)n(CC(=O)NCC2CCCO2)c(=O)c2c3c(sc21)COC(C)(C)C3 (configuration not stated),inactive
15,O=C1CCC(C(=O)N2CCOCC2)CN1Cc1cccc(C(F)(F)F)c1 (configuration not stated),"inconclusive: 89.1 µM [inhibitor, partial curve, poor fit]"
16,O=C(COC(=O)c1cc(S(=O)(=O)N2CCCCC2)ccc1N1CCOCC1)c1ccc(F)cc1,"inconclusive: 70.8 µM [inhibitor, partial curve, poor fit]"
17,Cc1ccc2oc(=O)c(S(=O)(=O)c3ccc(C(C)(C)C)cc3)cc2c1,inactive
18,COc1cc(OC)c(C(=O)/C=C/c2ccccc2)c(O)c1O,"inconclusive: 79.4 µM [inhibitor, partial curve]"
19,COCC(C)NC(=O)CCS(=O)(=O)c1nc(-c2ccc(OC)cc2)cc(C(F)(F)F)n1 (configuration not stated),"inconclusive: 50.1 µM [inhibitor, partial curve, poor fit]"
20,COC(=O)c1cc2oc(C)cc2n1CC(=O)Nc1ccc(C(C)C)cc1,inactive
21,Cc1ccc2cc(/C=N/NC(=O)c3ccccc3O)c(Cl)nc2c1,active: 15.8 µM
